Sequences with one replicate were seen in a single cluster, so their values are uncertain.
The sequences below were run on ATP (assay: switch fluorescence ratio, 500 uM ATP over buffer (Cy3 cluster intensity, sum of 5 cycles each) (fold (ratio)); higher = stronger signal-on switching upon ATP binding; sequences stand for … in TCGTCGGCAGCGTCAGATGTGTATAAGAGACAGTTTTTTTTTTTTTTTTTTTTTTTTT…TC). Settings: aptamer strand: ATP DNA aptamer (quencher-CACCTGGGGGAGTATTGCGGAGGAAGG + anchor), 100 nM annealed; ATP concentration: 500 uM; one replicate.
Method in brief: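 Five buffer/ATP imaging cycles were run on Cy3-labelled switching-strand clusters on a modified Illumina MiSeq flow-cell, with NaOH stripping and re-annealing between cycles. In each cycle, clusters annealed to 100 nM quencher-labelled ATP aptamer were imaged in selection buffer, then after 15 min with 500 uM ATP at 22 °C. Per cluster, the fluorescence ratio is summed target-cycle over summed buffer-cycle Cy3 intensity, averaged per switch-domain sequence. Only clusters within 100-1000 RFU were kept.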
CTCGTTAAC showed a switch fluorescence ratio of 1.08.
CTCGTTTTGG was tested, and the switch fluorescence ratio was 1.08.
Work on CTCTAAGGCG yielded a switch fluorescence ratio of 1.04.
CTCTACAATT was tested, and the switch fluorescence ratio was 1.11.
In the case of CTCTACTTCC, the switch fluorescence ratio is reported as 2.15.
In the case of CTCTATGGT, the switch fluorescence ratio is reported as 0.981.
CTCTCATAAA showed a switch fluorescence ratio of 1.13.
CTCTCCGGCC was tested, and the switch fluorescence ratio was 2.57.
With CTCTCCGGCT the switch fluorescence ratio was 1.15.
Sequence CTCTCGGGTA has a switch fluorescence ratio of 1.03.
Sequence CTCTCTATGC has a switch fluorescence ratio of 2.19.
CTCTGATGCG showed a switch fluorescence ratio of 1.01.
For CTCTGGGTTA, the switch fluorescence ratio was 1.03.
Sequence CTCTGGTCAC has a switch fluorescence ratio of 1.14.
CTCTGTAGAA showed a switch fluorescence ratio of 1.09.
Sequence CTCTGTTGGC has a switch fluorescence ratio of 1.37.
Work on CTCTGTTTTC yielded a switch fluorescence ratio of 1.13.
In the case of CTCTTACCTT, the switch fluorescence ratio is reported as 1.13.
In the case of CTCTTTATCG, the switch fluorescence ratio is reported as 1.03.
CTCTTTGTCC gave a switch fluorescence ratio of 1.03.
Work on CTCTTTTGAT yielded a switch fluorescence ratio of 1.01.
CTGAAAATAA was tested, and the switch fluorescence ratio was 0.966.
With CTGAAAATAC the switch fluorescence ratio was 1.81.
In the case of CTGAAAGCGC, the switch fluorescence ratio is reported as 0.988.
For CTGAACAATA, the switch fluorescence ratio was 1.62.
With CTGAACTAAT the switch fluorescence ratio was 1.02.
In the case of CTGAAGACAT, the switch fluorescence ratio is reported as 1.07.
Sequence CTGAAGCGGG has a switch fluorescence ratio of 1.08.
CTGAAGTGCA showed a switch fluorescence ratio of 1.05.
Sequence CTGACAACTT has a switch fluorescence ratio of 1.05.
Sequence CTGACATAA has a switch fluorescence ratio of 1.19.
CTGACGACCA showed a switch fluorescence ratio of 4.47.
For CTGACGGGGC, the switch fluorescence ratio was 2.23.
For CTGACTGCTC, the switch fluorescence ratio was 2.04.
In the case of CTGACTGTCA, the switch fluorescence ratio is reported as 1.23.
CTGAGAGTAA gave a switch fluorescence ratio of 1.13.
In the case of CTGAGCGAC, the switch fluorescence ratio is reported as 1.09.
Sequence CTGAGCTGGG has a switch fluorescence ratio of 1.
For CTGAGGCCTA, the switch fluorescence ratio was 1.07.
Work on CTGAGGTGGC yielded a switch fluorescence ratio of 0.995.
Sequence CTGAGTACAA has a switch fluorescence ratio of 1.09.
With CTGAGTACCT the switch fluorescence ratio was 1.12.
CTGATAAATG gave a switch fluorescence ratio of 0.96.
CTGATAAGAG showed a switch fluorescence ratio of 0.955.
In the case of CTGATAGAGT, the switch fluorescence ratio is reported as 0.964.
CTGATCAAGC was tested, and the switch fluorescence ratio was 1.13.
CTGATGCATT was tested, and the switch fluorescence ratio was 1.36.
CTGATTAATC gave a switch fluorescence ratio of 1.01.
Work on CTGATTCTGG yielded a switch fluorescence ratio of 0.942.
In the case of CTGATTTGGA, the switch fluorescence ratio is reported as 0.958.
CTGCAAGGAG was tested, and the switch fluorescence ratio was 1.13.
Work on CTGCAGTTTG yielded a switch fluorescence ratio of 3.1.
CTGCCAGGGT gave a switch fluorescence ratio of 1.03.
Sequence CTGCCAGTA has a switch fluorescence ratio of 1.02.
Work on CTGCCCATAA yielded a switch fluorescence ratio of 1.17.
Work on CTGCCGCGCG yielded a switch fluorescence ratio of 1.03.
Sequence CTGCCTAAAA has a switch fluorescence ratio of 1.04.
CTGCGACGGG gave a switch fluorescence ratio of 1.03.
Sequence CTGCGCTGGG has a switch fluorescence ratio of 1.15.
Sequence CTGCGGGCTC has a switch fluorescence ratio of 1.31.
With CTGCGTCTTG the switch fluorescence ratio was 1.
CTGCGTTATT gave a switch fluorescence ratio of 1.02.
In the case of CTGCTACGCT, the switch fluorescence ratio is reported as 1.13.
Sequence CTGCTATCTC has a switch fluorescence ratio of 1.9.
In the case of CTGCTATGCG, the switch fluorescence ratio is reported as 1.01.
CTGCTCAGCT gave a switch fluorescence ratio of 1.01.
Sequence CTGCTCGA has a switch fluorescence ratio of 1.03.
Sequence CTGCTCGGTC has a switch fluorescence ratio of 1.07.
In the case of CTGCTCTACG, the switch fluorescence ratio is reported as 1.06.
CTGCTCTAGA gave a switch fluorescence ratio of 1.02.
CTGCTCTTGA was tested, and the switch fluorescence ratio was 1.02.
Work on CTGCTGACAC yielded a switch fluorescence ratio of 1.14.
Sequence CTGCTGAGTG has a switch fluorescence ratio of 1.02.
For CTGCTGTGTG, the switch fluorescence ratio was 1.02.
CTGCTGTGTT showed a switch fluorescence ratio of 1.
CTGCTGTTTT gave a switch fluorescence ratio of 0.968.
CTGCTTATGT gave a switch fluorescence ratio of 1.

Source: the supplement of paper PMC10126150
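Further: ATP exposure 15 min at 22 °C before imaging.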
